Here are results for 36 compounds from the supplement of paper PMC4723716.

This test concerns Plasmodium falciparum NF54 stage V gametocytes. In words: viability index relative to DMSO control (fraction); higher = less gametocyte killing. The settings on record: 2.5 µM, incubation time: 72 h. A digest of the protocol:
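Gametocytes (P. falciparum NF54, stage V) were treated with compound at 2.5 µM for 72 hr at 37°C in low oxygen, in serum-free medium at 0.75% gametocytemia and 1.25% hematocrit. Counts of 20–70 µm2 red particles, taken from one field per well after MitoTracker Red CMXRos with saponin, were divided by the plate mean of solvent-only wells. This ratio is the viability index.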

Where [1] appears, read: library set: Broad Institute DOS.

Molecules are shown by their SMILES. ± gives the uncertainty stated by the source. In all, about 9,900 compounds were measured (“viability index relative to DMSO control”: median about 1, lowest 2% from about 0.85 on). The list shows a part of the results.

The compound `C[C@@H]1CN([C@H](C)CO)C(=O)c2cccc(NC(=O)c3ccncc3)c2O[C@@H]1CN(C)Cc1ccc2c(c1)OCO2` displayed a viability index under setting [1] of 0.966 ± 0.0098. `COc1ccc(-c2ccc([C@H]3[C@H]4CNC[C@@H]3N4S(=O)(=O)Cc3ccccc3)cc2)cc1` yielded a viability index under setting [1] of 1.07 ± 0.011. Still for that read-out and setting: then `CC(=O)NC[C@@H]1[C@@H](c2ccc(C3=CCCC3)cc2)[C@H](CO)N1Cc1cccnc1`, with 1.04 ± 0.046.

With `O=C(C[C@H]1C=C[C@H](NC(=O)c2ccncc2)[C@H](CO)O1)NCC1CC1`, the viability index under setting [1] came to 1.09 ± 0.065. Under setting [1], `CC(C)CC#Cc1ccc([C@@H]2[C@@H](CO)N3C(=O)CN(C(=O)c4ccccn4)C[C@@H]23)cc1` registered a viability index of 1.04 ± 0.036. The same measure, in the same setting: then `COc1ccc(-c2ccc3c(c2)[C@H]2[C@H](CCN2C(=O)Nc2ccccc2OC)[C@H](CO)N3C)cc1`, with 0.897 ± 0.011; and `CN1C(=O)c2cc(NC(=O)Cc3cccs3)ccc2OC[C@@H]2O[C@H](CC(=O)NCC3CCCCC3)CC[C@H]21`, with 1.15 ± 0.05; and `COc1cccc(NC(=O)N[C@@H]2CC[C@@H](CC(=O)N3CCN(C)CC3)O[C@@H]2CO)c1`, with 1.11 ± 0.06.

In the case of `C/C=C/c1ccc([C@@H]2[C@H](CO)N3CCCCN(S(=O)(=O)c4ccc(OC)cc4)C[C@@H]23)cc1`, under setting [1], the viability index turned out to be 1.03 ± 0.014. Same read-out and setting: then `C[C@H](CO)N1C[C@H](C)[C@H](CN(C)C(=O)Nc2ccccc2)Oc2ccc(NS(=O)(=O)c3ccc(F)cc3)cc2C1=O`, with 0.908 ± 0.069. On the same count and under the same terms, in the case of `N#Cc1cccc(-c2ccc([C@H]3[C@H]4CN(Cc5ccccc5F)CCCCN4[C@H]3CO)cc2)c1` it was 1.06 ± 0.024; in that of `O=C(C[C@@H]1CC[C@H]2[C@@H](COC[C@@H](O)CN2C(=O)Nc2ccccc2)O1)NCc1ccccc1F`, 1.02 ± 0.029; in that of `COc1ccc2c3c([nH]c2c1)[C@H](CO)N(Cc1ccccc1)C[C@]31CN(C1)C(=O)c1ccccn1`, 0.92 ± 0.023. On the same count and under the same terms, in the case of `CO[C@H]1CN(C)C(=O)c2cc(NC(C)=O)ccc2OC[C@@H](C)N(S(C)(=O)=O)C[C@@H]1C` it was 1.02 ± 0.029; in that of `C[C@@H]1CN([C@@H](C)CO)C(=O)Cc2cc(NC(=O)CCN3CCOCC3)ccc2O[C@@H]1CN(C)Cc1ccc(C(=O)O)cc1`, 0.9784 ± 0.0024. `COc1ccc(S(=O)(=O)Nc2ccc3c(c2)[C@H]2C[C@@H](CC(=O)N(C)C)O[C@@H](CO)[C@H]2O3)cc1` showed a viability index under setting [1] of 1.07 ± 0.052.

On to `CO[C@H]1CN(C)C(=O)c2cccc(C#N)c2OCC[C@H]2CC[C@@H](OC)[C@H](CN(C)C(=O)[C@@H]1C)O2`, for which the viability index under setting [1] was 1.02 ± 0.041. Same read-out and setting: then `Cc1noc(C)c1NC(=O)N[C@H]1C=C[C@@H](CC(=O)Nc2ccc(-c3ccccc3)cc2)O[C@H]1CO`, with 1.03 ± 0.078; and `COc1cccc(S(=O)(=O)N(C)C[C@@H]2OCc3ccccc3-c3c(n(C)c4ccccc34)C(=O)N([C@H](C)CO)C[C@@H]2C)c1`, with 0.826 ± 0.058; and `COc1ccccc1-c1ccc([C@H]2[C@@H](C#N)N[C@@H]2CO)cc1`, with 1.11 ± 0.069. Same read-out and setting: in the case of `Cc1ccc(S(=O)(=O)N2C[C@H](O)COC[C@H]3O[C@H](CC(=O)NCc4ccc5c(c4)OCO5)CC[C@@H]32)cc1` it was 1.09 ± 0.042; in that of `COc1cccc(CN2C[C@]3(CN(C)C3)c3c([C@H]2CO)n(C)c2cc(OC)ccc32)c1`, 0.996 ± 0.085. For `CCS(=O)(=O)N1C[C@@]2(C1)CN([C@H](CO)c1c2c2ccc(OC)cc2n1C)C(=O)NC(C)C`, the viability index under setting [1] is 1.01 ± 0.083. As to `COc1ccccc1C#Cc1ccc([C@@H]2[C@@H](CO)N3CCCCN(CCC(F)(F)F)C[C@H]23)cc1`, where the note is “library set: Broad Institute Blood Stage”, the viability index came out at 0.759 ± 0.06. As for `C/C=C/c1ccc([C@H]2[C@@H](CO)N3C(=O)CN(Cc4ccc(F)cc4)C[C@@H]23)cc1`, the viability index under setting [1] turned out to be 0.992 ± 0.064.

Take `CCCN(C)C[C@H]1OCCCC[C@H](C)Oc2ccc(NC(=O)CCCN(C)C)cc2C(=O)N([C@H](C)CO)C[C@@H]1C`: the viability index under setting [1] came to 1.06 ± 0.054.

Under setting [1], `CCCNC(=O)N1CC2(C1)[C@@H](c1ccccc1)[C@@H](CO)N2CC1CCOCC1` returned a viability index of 1.04 ± 0.028. The same measure, in the same setting: then `CCS(=O)(=O)N1[C@H](CO)[C@@H](c2ccc(C#CCC3CCCC3)cc2)[C@@H]1C#N`, with 1.04 ± 0.025; and `Cc1ccc(S(=O)(=O)N2C[C@@H](O)COC[C@H]3O[C@@H](CC(=O)NCc4ccc5c(c4)OCO5)CC[C@@H]32)cc1`, with 1.102 ± 0.01; and `Cc1noc(C)c1S(=O)(=O)N(C)C[C@H]1OCCCC[C@H](C)Oc2ccc(NC(=O)CCC(F)(F)F)cc2C(=O)N([C@@H](C)CO)C[C@@H]1C`, with 1.02 ± 0.024. Same read-out and setting: in the case of `C/C=C/c1ccccc1[C@@H]1[C@@H](C#N)N(C(C)=O)[C@@H]1CO` it was 1.14 ± 0.046; in that of `O=C(C[C@H]1CC[C@H](NC(=O)C2CC2)[C@H](CO)O1)Nc1ccccc1`, 0.992 ± 0.033. Same read-out and setting: in the case of `COCCNC(=O)[C@@H]1[C@@H](CO)[C@@H]2Cn3c(ccc(C4=CCCCC4)c3=O)[C@H]1N2Cc1cocn1` it was 0.983 ± 0.054; in that of `NCC[C@@H]1CC[C@@H](NC(=O)NC2CCCCC2)[C@H](CO)O1`, 1.02 ± 0.047; in that of `C[C@@H]1CCCCO[C@@H](CN(C)Cc2ccc(C(=O)O)cc2)[C@H](C)CN([C@@H](C)CO)C(=O)c2cc(N(C)C)ccc2O1`, 1.13 ± 0.093. Compound `COc1ccc2c3c([nH]c2c1)[C@@H](CO)N(Cc1ccccc1F)C[C@]31CCN(CC1)C(=O)C1CC1` showed a viability index under setting [1] of 0.93 ± 0.081.
